The text below walks through data of PubChem BioAssay AID463173 (ICCB-Longwood Screening Facility, Harvard Medical School, 2010).

Among all 52,000 compounds or so, about 4,300 (8.3%) were called active. Cut-off read from the data, not from the text of the source: active = survival mostly below about 52% (no sharp cut-off); inactive = mostly above about 56%. The list shows a part of the results.

This assay relates to DeltatarO mutant. Description: S. aureus survival, RN4220 and DeltatarO strains – OD600, teichoic acid synthesis inhibitors, primary screen (AID 463173). As to conditions: S. aureus RN4220 wild type/DeltatarO growth, OD600, 18 h, stronger effect = lower value, screened at 18.75 µg/mL (by protocol).
Turning to `COc1ccc(CNC(=O)CCc2c(C)c3ccc(OC)c(C)c3oc2=O)cc1OC`, the survival was inactive: 80%.

As for `Cc1cccc(Cn2c(SCc3ccc(C(=O)NCc4ccccc4)cc3)nc3cccnc32)c1`, the survival was active: 46%.

In the case of `CCNC(=O)C1CCCN(c2ncnc3onc(C)c23)C1` (centres undefined), the survival was inactive: 101%.

Regarding `COC(=O)c1ccc(-n2nnc(-c3nc(-c4ccccc4Cl)no3)c2C)cc1`, the survival was inactive: 72%.

Consider `Cc1ccc(C(=O)c2oc3ccccc3c2NC(=O)c2cc(=O)c3cc(C)ccc3o2)cc1`, for which the survival was inactive: 105%.

Regarding `COc1cccc(Cn2ccn(-c3ccc(F)cc3)c(=O)c2=O)c1`, the survival is inactive: 54%.

As for `Cc1ccc(NC(=O)c2nnn(Cc3cccc(C(F)(F)F)c3)c2N)c(C)c1`, the survival is inactive: 86%.

Consider `Cc1ccc(-c2nc(C(=O)N3CCN(c4ccccc4)CC3)c3n2CCCCC3)cc1`, for which the survival was inactive: 66%.

On to `CCC(Sc1ncccc1C(=O)Oc1ccccc1Cl)C(=O)Nc1ccccc1OC` (centres undefined), for which the survival was inactive: 84%.

On to `COc1ccc(NC(=O)C(NC(=O)C2CCC(C)CC2)C(C)C)cc1` (centres undefined), for which the survival is inactive: 79%.

With `Cc1ccc2c(=O)c(C(=O)c3ccccc3)cn(CC(=O)Nc3ccc(C)c(Cl)c3)c2n1`, the survival is inactive: 77%.

Consider `CCCNC(=O)c1ccc2c(c1)nc(C)n2-c1cccc(C)c1`, for which the survival was inactive: 83%.

As for `Cc1nn(C)c2c1c(C(F)(F)F)cc(=O)n2C(C)C(=O)NCCC(C)C` (centres undefined), the survival is inactive: 91%.

Take `Cc1ccc(N2C(=O)CS(=O)(=O)C23C(=O)N(Cc2ccccc2C)c2ccccc23)cc1Cl` (centres undefined): the survival is inactive: 74%.

In the case of `CN1CCN(C(=O)Cn2c(-c3cccs3)cc3ccccc32)CC1`, the survival was inactive: 95%.

As to `COc1cc(OC)cc(C(=O)Nc2ccc(-c3nc4ccccc4s3)c(C)c2)c1`, the survival was inactive: 117%.

In the case of `O=C(CSc1ccccn1)Nc1ccc(Cl)cc1`, the survival was inactive: 77%.

`Cc1nc2ccn(Cc3ccco3)c(=O)c2cc1C(=O)Nc1ccc(F)cc1`: the survival was inactive: 89%.

Regarding `COc1ccc(NC(=O)Cn2nc(-c3ccccc3)c3cnc4ccc(C)cc4c32)cc1`, the survival is inactive: 63%.

For the molecule `COc1ccc(-n2c(=O)[nH]c3cc(C(=O)NCCc4ccc(Cl)cc4)ccc3c2=O)cc1OC`, the survival is inactive: 85%.

Regarding `CCCn1cc(S(=O)(=O)c2cc(C)ccc2C)c(=O)c2cc(F)c(N3CCN(CC)CC3)cc21`, the survival is inactive: 80%.

As for `CCOC(=O)c1c(S(=O)(=O)NCC(=O)NCc2ccccc2Cl)c(C)n(C)c1C`, the survival was inactive: 97%.

On to `COCCCn1c(=O)c2sccc2n2c(CCCC(=O)NC3CCC(C)CC3)nnc12` (centres undefined), for which the survival is inactive: 82%.

For `Cc1cccc(NC(=O)C2CCN(S(=O)(=O)c3ccc4c(c3)CCCN4C(=O)C3CCC3)CC2)c1`, the survival is inactive: 71%.

As to `Cn1c(COc2ccccc2)n[nH]c1=S`, the survival is inactive: 99%.

For `Cc1cccc(C)c1-n1ncc(C(=O)N2CCN(c3ncccn3)CC2)c1C1CCN(C(=O)OC(C)(C)C)CC1`, the survival was inactive: 95%.

For the molecule `COc1ccc(CNC(=O)C2CCN(S(=O)(=O)c3ccc4c(c3)CCCN4C(C)=O)CC2)cc1`, the survival was inactive: 78%.

Regarding `CCc1ccccc1NC(=O)c1sc(-n2nc(C)c(Cc3ccccc3)c2C)nc1C`, the survival is inactive: 92%.

As to `Cc1ccc(C)c(CSc2nnc3[nH]c(=O)cc(-c4ccccc4)n23)c1`, the survival is inactive: 68%.

Regarding `Cc1ccc(CNC(=O)c2cc3ccc4cccnc4c3[nH]2)cc1`, the survival is active: 32%.

Turning to `COc1ccc(-c2noc(-c3ccc(NC4CCCC4)c([N+](=O)[O-])c3)n2)cc1OC`, the survival was inactive: 55%.

As for `COc1cc(Cl)c(C)cc1NC(c1ccccc1)c1nnc(-c2ccccc2Cl)o1` (centres undefined), the survival is inactive: 69%.

Consider `CC(=O)Nc1ccc2nc(NC(=O)CS(=O)(=O)c3ccc(C)cc3)sc2c1`, for which the survival is inactive: 87%.

Regarding `CCC(C)n1c(=N)c(C(=O)NC2CCCCC2)cc2c(=O)n3ccccc3nc21` (centres undefined), the survival is inactive: 76%.

With `COc1ccc(C2=Nc3ccc(OC(F)(F)F)cc3NC(c3cccnc3)=N2)cc1`, the survival is inactive: 67%.

Consider `O=S(=O)(NCc1ccc2c(c1)OCO2)c1cccc2nsnc12`, for which the survival was inactive: 84%.

As to `COc1ccc(C(=O)N(Cc2ccc(N(C)C)cc2)CC2CCCO2)cc1` (centres undefined), the survival is inactive: 63%.

For `COc1cc(NC(=O)CSc2nc(-c3ccc(C(C)C)cc3)no2)cc(OC)c1`, the survival was inactive: 91%.

As for `COc1ccc(NC(=O)CSc2cn(CCNC(=O)c3c(F)cccc3F)c3ccccc23)cc1`, the survival is inactive: 76%.

Take `O=c1[nH]cc(COCC(F)(F)C(F)F)c(=O)[nH]1`: the survival is inactive: 74%.

With `CCN1CCN(Cc2c(O)ccc3c(=O)c(Oc4ccccc4C(C)C)c(C(F)(F)F)oc23)CC1`, the survival is active: 51%.

Regarding `O=C(N1CCCC1)N1CCC(c2ccc3c(c2)OCO3)CC1`, the survival was inactive: 96%.

Take `CCCN1CCN(CCCNC(=O)Cn2nc(C)n3c(cc4c(OC)cccc43)c2=O)CC1`: the survival was inactive: 104%.

Regarding `Cc1ccc2c(c1)N(C(=O)N1CCC(C(=O)NCCc3ccccc3)CC1)CC(C)O2` (centres undefined), the survival was inactive: 82%.

Consider `CSc1nnc(-c2ccc(S(=O)(=O)N3CCCC3)cc2)n1C`, for which the survival was inactive: 91%.

As for `Cc1ccc2c(=O)cc(C(=O)Nc3sc4c(c3C(=O)NCC3CCCO3)CCCC4)oc2c1C` (centres undefined), the survival was inactive: 85%.

For `O=C(c1cccc(Cl)c1)N1c2ncnn2C2(CCCCC2)[C@@H]2CCCC[C@@H]21`, the survival was inactive: 80%.

As for `O=C(Nc1nc(-c2ccc3c(c2)CCN3C(=O)C2CCCCC2)cs1)c1ccco1`, the survival is inactive: 58%.

Regarding `COc1cccc(Cn2c(SCc3ccc(C(=O)N4CCCCC4)cc3)nc3ccncc32)c1`, the survival was inactive: 74%.

In the case of `O=C(Nc1nc2n(n1)C(c1ccccc1)C=C(c1ccc(Cl)cc1)N2)c1ccco1` (centres undefined), the survival was inactive: 42%.

As to `Cc1cc(Cl)ccc1NC(=O)CN1C(=O)COc2ccc(S(=O)(=O)Nc3ccccc3)cc21`, the survival was inactive: 94%.

For `COc1ccc(N(CCC#N)S(=O)(=O)c2ccc(Cl)cc2)cc1`, the survival is inactive: 89%.

On to `CCOC(=O)C1CCCN(C(=O)c2ccc3c(c2)sc2nc(-c4ccc(C)cc4C)cn23)C1` (centres undefined), for which the survival was inactive: 47%.

For `COc1ccc(CCNc2nc(C)cc(C)n2)cc1OC`, the survival was inactive: 85%.

For `COc1ccc(C)cc1NC(=O)C(Cc1ccccc1)NS(=O)(=O)c1ccc(Br)s1` (centres undefined), the survival is inactive: 131%.

Take `O=C(COc1ccc(F)cc1)Nc1nnc(SCc2cc(=O)n3ccccc3n2)s1`: the survival was inactive: 83%.

`CCOc1ccc(-c2nonc2NC(=O)c2oc3cc(C)ccc3c2C)cc1OCC`: the survival was inactive: 87%.

`COc1ccc(N2Cc3cccc(C(=O)Nc4ccc(Cl)cc4)c3C2=O)cc1`: the survival was inactive: 69%.

In the case of `Cc1nn(C)c2c1c(-c1ccccc1)cc(=O)n2Cc1ccc(F)cc1`, the survival was inactive: 122%.

As for `COc1ccc(-n2cc(-c3ccc4c(c3)OCO4)n(CC(=O)Nc3cc(Cl)ccc3C)c2=O)cc1`, the survival is inactive: 73%.

With `COc1ccc(-n2nc3ccc(NC(=O)c4cccc(OCCC(C)C)c4)cc3n2)cc1`, the survival is inactive: 121%.

In the case of `O=C1C(c2ccccc2)NC(=S)N1C1CCCCC1` (centres undefined), the survival was inactive: 79%.

For the molecule `CCc1c(C)sc2c1CCN(Cc1ccccc1C#N)C2c1ccccc1` (centres undefined), the survival is inactive: 99%.

Turning to `CCOc1ccc(CNC(=O)C2CCN(c3nc4ccccc4nc3C(F)(F)F)CC2)cc1OC`, the survival was inactive: 98%.

For `CCCC(=O)Nc1c(C)nn(C(=O)CCC)c1C`, the survival was inactive: 73%.

`CC1CCN(c2oc(-c3cccs3)nc2S(=O)(=O)c2ccccc2)CC1`: the survival is active: 35%.

In the case of `CCOC(=O)c1cnc2c(ccc3ccccc32)c1Nc1cccc(Cl)c1`, the survival is active: 14%.

Take `COc1ccc(CCNC(=O)c2cnc3sc(N4CCOCC4)nn3c2=O)cc1`: the survival was inactive: 71%.

With `O=c1[nH]c2cc3[nH]c(=O)c(=O)c3cc2c1=O`, the survival is inactive: 89%.

Turning to `CCCS(=O)(=O)N1CCC(n2c(C)nc3cccnc32)CC1`, the survival is inactive: 87%.

Turning to `CCN(CC)S(=O)(=O)c1ccc2c(c1)N(CC(=O)NCCCN1CCN(c3ccc(OC)cc3)CC1)C(=O)CO2`, the survival was inactive: 88%.

In the case of `CC1=C(C(=O)OC2CCCC2)C(c2ccc(C)o2)C2=C(CCCC2=O)N1` (centres undefined), the survival was inactive: 98%.

Regarding `Cc1ccc2oc(C(=O)Nc3ccc(S(=O)(=O)N4CCCCC4C)cc3)cc(=O)c2c1` (centres undefined), the survival was inactive: 73%.

`CCOC(=O)c1cc(-c2ccccc2)n(CCC(=O)NCCc2ccccc2)c1C`: the survival was active: 0%.

Regarding `CCN(C(=O)CSc1nc2ccccc2n1CC(=O)N(C)C1CCCCC1)c1ccccc1`, the survival was inactive: 118%.

For the molecule `O=C1CC(C(=O)NCCc2ccccc2)C2(CCCCC2)O1` (centres undefined), the survival is inactive: 84%.

In the case of `CCc1ccc(C(=O)c2cn(CC(=O)Nc3cc(OC)ccc3OC)c3ccc(Cl)cc3c2=O)cc1`, the survival is inactive: 73%.

In the case of `COc1ccc(CNC(=O)c2cnc(N3CCCC3)nc2C)c(OC)c1`, the survival was inactive: 75%.

`COc1ccccc1CNC(=O)C(NS(=O)(=O)c1ccc2c(c1)CCN2C(C)=O)C(C)C` (centres undefined): the survival was inactive: 79%.

With `CCOC(=O)c1cnc2ccc(OC)cc2c1Nc1ccc(OCc2ccccc2Cl)cc1`, the survival is active: 8%.

In the case of `Cc1ccc(NC(=O)CCC(=O)N2Cc3ccccc3Oc3ncccc32)cc1Cl`, the survival was inactive: 83%.

`COc1ccc(-c2nc3sc(CCNC(=O)Cc4ccccc4)c(C)n3n2)cc1`: the survival is inactive: 102%.

As to `N#Cc1cn(CC(=O)Nc2ccccc2C(F)(F)F)c2ccccc12`, the survival was inactive: 70%.

Turning to `COc1ccc(C)cc1NC(=O)c1nnn(Cc2cccc(Br)c2)c1N`, the survival is inactive: 87%.

For the molecule `COc1ccc(C2=NS(=O)(=O)N(C)C(C(=O)NC(C)c3ccccc3)=C2)cc1` (centres undefined), the survival was inactive: 64%.

As to `CCC(=O)N1CCc2cc(S(=O)(=O)NCc3ccc(C)cc3)ccc21`, the survival is inactive: 95%.

With `COc1ccccc1NC(=O)C1=C(C)Nc2nc3ccccc3n2C1c1ccccc1Cl` (centres undefined), the survival was inactive: 62%.

Consider `CN(C)c1ncc(C(=O)NCc2ccc(Cl)cc2)cn1`, for which the survival is inactive: 80%.

For `Cc1nc(N)nc2c1C(=O)CC(c1ccccc1)C2` (centres undefined), the survival was inactive: 99%.
